From the supplement of paper PMC4166925
± gives the standard deviation of the averaged measurements. Whole data set: some 33,000 sequences, median “E-score (dimensionless, -0.5 to 0.5)” near -0.046, cut for the highest 2% near 0.36. The list shows a part of the results.

Each sequence was assayed on T1, SpTbr T-box DNA-binding domain (GST fusion) (assay: PBM E-score of 8-mer (E-score (dimensionless, -0.5 to 0.5)); Tbr is Tbrain of the sea star Patiria miniata (Pm) or the sea urchin Strongylocentrotus purpuratus (Sp); higher = stronger binding preference; most listed sequences are background and not binding sites). Conditions: the construct has about 5 more residues each side.
T1 sequence: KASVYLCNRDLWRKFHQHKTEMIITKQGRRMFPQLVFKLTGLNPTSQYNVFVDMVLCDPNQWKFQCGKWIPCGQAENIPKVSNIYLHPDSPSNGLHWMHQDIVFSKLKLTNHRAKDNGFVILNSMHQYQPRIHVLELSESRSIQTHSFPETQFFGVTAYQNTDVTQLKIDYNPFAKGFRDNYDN
How it was run: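 Expression of GST-fused Tbr T-box DNA-binding domains, each holding the full T-box plus roughly five flanking residues, was carried out in BL21 E. coli at 20 °C, with purification by glutathione affinity chromatography. Universal Agilent arrays made double-stranded by primer extension were incubated with the protein at 200 nM in PBS (pH 7.5), then scanned and quantified. All ungapped 8-mers were scored from probe intensities, and each received an enrichment E-score from the Universal PBM Analysis Suite, averaged over duplicate arrays.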

Row | Sequence | PBM E-score of 8-mer
1 | ATAAGGCC | -0.269 ± 0.14
2 | ATTCCTAA | -0.233 ± 0.037
3 | CTCTGCAA | -0.207 ± 0.013
4 | TGTCATAA | 0.288 ± 0.022
5 | GCGACTCC | 0.196 ± 0.027
6 | GATCAAAA | -0.0389 ± 0.074
7 | AAACGAAG | -0.156 ± 0.043
8 | CGACGTTC | -0.173 ± 0.011
9 | GTGCGCCA | 0.0213 ± 0.017
10 | GTAAAAAA | 0.0079 ± 0.032
11 | TGGCTAAA | -0.277 ± 0.036
12 | ACAGTGCG | 0.307 ± 0.029
13 | GAGCGATA | 0.115 ± 0.016
14 | ACTCCTCG | 0.178 ± 0.052
15 | GCGCACAA | -0.062 ± 0.038
16 | AAGAATAT | -0.234 ± 0.038
17 | CTAGTTGC | 0.0916 ± 0.087
18 | AGTCGTTA | 0.0721 ± 0.0013
19 | ACGGTGTA | 0.137 ± 0.026
20 | CGTCCCCC | -0.245 ± 0.065
21 | ATAATCGG | -0.0579 ± 0.056
22 | CCTTGTTA | 0.148 ± 0.072
23 | ATACCATC | -0.236 ± 0.017
24 | ATCTGATG | -0.00345 ± 0.016
25 | GCGGAAAC | 0.14 ± 0.041

Row | Sequence | PBM E-score of 8-mer
26 | GTATCTAA | -0.18017 ± 0.00014
27 | AGGCAGTA | -0.169 ± 0.045
28 | TAACGAAA | -0.0251 ± 0.0043
29 | GAACATAC | -0.0451 ± 0.0094
30 | ACAAAAAC | 0.034 ± 0.024
31 | GGCAACAC | 0.3658 ± 0.00072
32 | TCCGTACA | -0.205 ± 0.035
33 | GACTACAA | -0.152 ± 0.053
34 | ACGAGCGA | 0.0819 ± 0.019
35 | ATCTCGAC | -0.00861 ± 0.033
36 | CGCAGATA | -0.0294 ± 0.04
37 | GAATGGCA | 0.0832 ± 0.081
38 | CAGGAGGA | -0.0587 ± 0.0051
39 | AAATTTAC | -0.00563 ± 0.15
40 | GAAAAACC | 0.139 ± 0.038
41 | CTCGGTGC | -0.0827 ± 0.037
42 | CGCACTGC | 0.104 ± 0.0094
43 | ACGCAGGG | -0.0816 ± 0.033
44 | AAGCGGGG | -0.276 ± 0.091
45 | CGTTTAAG | -0.11 ± 0.0043
46 | AGCTCAGC | -0.134 ± 0.069
47 | AACCATCG | 0.0525 ± 0.093
48 | CACAGCTG | 0.287 ± 0.039
49 | CTCACGGC | 0.103 ± 0.0051
50 | ATTGTACC | -0.214 ± 0.0067

Row | Sequence | PBM E-score of 8-mer
51 | GGTACCGA | -0.0862 ± 0.038
52 | TACGCCGA | -0.14 ± 0.027
53 | AAATAGGG | -0.0176 ± 0.071
54 | GGCACTTA | 0.255 ± 0.051
55 | CAGTTAGG | -0.0733 ± 0.022
56 | AGTCTTAG | -0.08108 ± 0.00026
57 | ACCTTGAG | 0.0234 ± 0.011
58 | GGGTAAAC | 0.0516 ± 0.039
59 | GAACAGTA | 0.00048 ± 0.058
60 | ACCAGGGT | 0.057 ± 0.067
61 | CAGAATGG | -0.0564 ± 0.0011
62 | CCGGCCCC | -0.303 ± 0.012
63 | GTTATACA | 0.0337 ± 0.053
64 | AACTGTAC | -0.117 ± 0.088
65 | GTGAATCA | 0.141 ± 0.0059
66 | AAATGTGT | 0.435 ± 0.0081
67 | AGACGTCT | -0.229 ± 0.058
68 | AGCGAATA | 0.0354 ± 0.019
69 | CTGATGTA | -0.178 ± 0.016
70 | TCAATGCA | -0.22 ± 0.069
71 | AGTTCGAG | 0.0209 ± 0.058
72 | AAATTCAC | 0.266 ± 0.021
73 | GATAAATA | -0.0381 ± 0.072
74 | GGCTAAAC | -0.169 ± 0.0099
75 | TGGTTGAA | -0.163 ± 0.022

Row | Sequence | PBM E-score of 8-mer
76 | CACCGAAG | 0.0762 ± 0.036
77 | ATGATCCC | -0.256 ± 0.045
78 | AACGTCAC | 0.265 ± 0.046
79 | GGGCGCAA | 0.116 ± 0.043
80 | GGATTATA | -0.0746 ± 0.014
81 | CGCAAGGC | 0.169 ± 0.058
82 | ATCCTACA | -0.146 ± 0.057
83 | CGGAGCAC | -0.183 ± 0.1
84 | ATCATGCG | 0.0497 ± 0.038
85 | ACGGGGAG | 0.00962 ± 0.00042
86 | CGTAACAG | 0.0475 ± 0.054
87 | ATTCAAAG | -0.162 ± 0.075
88 | CGCGGGTC | 0.186 ± 0.018
89 | CAACGACA | 0.24 ± 0.0025
90 | CCTTAGTA | -0.196 ± 0.029
91 | AACTCCGC | -0.19 ± 0.015
92 | CAGACCTA | -0.199 ± 0.0024
93 | CTCGAAAA | -0.112 ± 0.075
94 | CAAAAACG | -0.0456 ± 0.032
95 | CGGGGGCA | -0.123 ± 0.051
96 | CAACCAAG | -0.217 ± 0.01
97 | AGTAACAG | 0.052 ± 0.013
98 | GACGAATC | 0.112 ± 0.076
99 | AGATACCC | -0.143 ± 0.013
100 | CGCTCATA | -0.0486 ± 0.057

Row | Sequence | PBM E-score of 8-mer
101 | AAGCCCGG | -0.24 ± 0.028
102 | GAACGATA | 0.000605 ± 0.083
103 | ACATGAGC | 0.0251 ± 0.044
104 | CAGACCCC | -0.342 ± 0.019
105 | ACCTCTGG | 0.0361 ± 0.051
106 | AAACCCTA | -0.104 ± 0.0094
107 | TAGAGAGA | -0.0974 ± 0.08
108 | CCCCAGGG | -0.0372 ± 0.051
109 | ACAAATCA | 0.0598 ± 0.0013
110 | AGAGATGG | -0.125 ± 0.015
111 | GTGATAAC | 0.395 ± 0.0074
112 | GGATCACA | 0.267 ± 0.017
113 | CACCGCCA | 0.221 ± 0.035
114 | GCGTCGCC | 0.203 ± 0.067
115 | CAATTGCC | 0.0264 ± 0.041
116 | ATGCCCAC | -0.101 ± 0.065
117 | CGGTTCTA | -0.0829 ± 0.072
118 | CTCCAACC | -0.131 ± 0.039
119 | AGACGGGG | -0.238 ± 0.026
120 | CTGAATAA | -0.218 ± 0.0064
121 | TAATTATA | -0.2 ± 0.0056
122 | GGCGAAGA | 0.0993 ± 0.047
123 | CGCACTAC | 0.13 ± 0.058
124 | CCAGCTTC | -0.142 ± 0.058
125 | CCCCTACG | -0.185 ± 0.019

Row | Sequence | PBM E-score of 8-mer
126 | CACGGTAG | -0.0942 ± 0.0082
127 | ACCACTTG | 0.0957 ± 0.0097
128 | CAAGGATA | -0.175 ± 0.043
129 | GTCGTTAA | 0.11 ± 0.042
130 | CCCAAAAC | -0.028 ± 0.014
131 | AGCCCCTC | -0.0282 ± 0.03
132 | CATTATGA | -0.0907 ± 0.081
133 | CACTAGTG | 0.243 ± 0.0097
134 | GACGGATA | -0.143 ± 0.099
135 | ATCGCTTA | 0.0586 ± 0.017
136 | CGGGGGAG | -0.272 ± 0.048
137 | TGCACTAA | 0.114 ± 0.11
138 | AGCACATC | 0.168 ± 0.039
139 | AGATTCGG | -0.143 ± 0.046
140 | GAGTATGA | -0.047 ± 0.066
141 | ACTATTGA | -0.0122 ± 0.052
142 | TCCGATAA | -0.0593 ± 0.01
143 | AGTGGATA | -0.0344 ± 0.053
144 | ACATGAGT | -0.0726 ± 0.023
145 | ACTTGAGC | 0.0871 ± 0.018
146 | GATTTTAC | -0.1536 ± 0.0012
147 | AATTCCTC | -0.138 ± 0.064
148 | CCTATATC | -0.169 ± 0.011
149 | GTCGTGGA | 0.0519 ± 0.052
150 | ACAAGACC | 0.0171 ± 0.048

Row | Sequence | PBM E-score of 8-mer
151 | AAGTAGAA | 0.0466 ± 0.046
152 | ACCAGGAG | -0.132 ± 0.005
153 | CGAAATAG | -0.13 ± 0.061
154 | CTCGAAGC | 0.0692 ± 0.023
155 | TCTGCGCA | 0.00691 ± 0.0057
156 | CTCATAAG | -0.13 ± 0.037
157 | AGAGGTAC | -0.195 ± 0.04
158 | GGAACGAC | 0.0236 ± 0.0013
159 | GACGAAGC | 0.0228 ± 0.026
160 | CATCCCCC | -0.0617 ± 0.042
161 | CGTCCGAC | -0.0181 ± 0.044
162 | ATATAGTA | -0.0968 ± 0.019
163 | GCCGCGAA | 0.343 ± 0.0045
164 | CTAATAGA | -0.157 ± 0.018
165 | CTTCCATC | -0.0852 ± 0.02
166 | GATCTTGC | -0.102 ± 0.053
167 | CGACCAGA | -0.103 ± 0.0043
168 | ATCAGTTG | 0.0334 ± 0.0027
169 | ATCGCACG | 0.345 ± 0.027
170 | GAGCGATC | -0.171 ± 0.037
171 | TCGGCAAA | -0.0408 ± 0.027
172 | AAGCGCGA | 0.369 ± 0.007
